The other results are listed elsewhere or left out. The energies were worked out here from pooled read counts, against the library average; single values are noisy.
target: T1, Pho4 (S. cerevisiae) (UniProt P07270); test: relative binding free energy (BET-seq); higher = weaker binding; conditions: reference: library average
T1 sequence: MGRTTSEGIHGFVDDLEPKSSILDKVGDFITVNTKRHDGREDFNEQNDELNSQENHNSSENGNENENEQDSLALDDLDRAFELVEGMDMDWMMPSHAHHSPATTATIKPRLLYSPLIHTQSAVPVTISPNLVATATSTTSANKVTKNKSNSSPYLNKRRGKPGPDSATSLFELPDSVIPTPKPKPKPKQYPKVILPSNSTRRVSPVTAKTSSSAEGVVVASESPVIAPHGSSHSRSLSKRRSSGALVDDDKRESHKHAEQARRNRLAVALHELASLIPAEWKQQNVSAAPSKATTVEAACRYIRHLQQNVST

Sequence | relative binding free energy
TATCACACGTGTGGTT | 0.08 kcal/mol
GAATACACGTGTTGGG | 0.06 kcal/mol
GTTGGCACGTGTTTGG | 0 kcal/mol
TGAGGCACGTGGGGAG | -0.17 kcal/mol
TATAGCACGTGTAAAG | 0.17 kcal/mol
TAATACACGTGTGTGA | -0.06 kcal/mol
CTTTTCACGTGGTCGG | 0.26 kcal/mol
TTTCTCACGTGAGGAT | 0.26 kcal/mol
GCTGACACGTGTGTTT | 0.16 kcal/mol
TGTCGCACGTGCGGGG | -0.06 kcal/mol
TTGTGCACGTGTCGTA | -0.12 kcal/mol
GGACGCACGTGTAGAG | -0.01 kcal/mol
GTGGGCACGTGTGGCT | 0.07 kcal/mol
GGTGACACGTGTCTTT | 0.19 kcal/mol
GTTAACACGTGCGTGG | -0.01 kcal/mol
ATGTACACGTGTGATT | 0.11 kcal/mol
CCTCGCACGTGGGGGG | -0.38 kcal/mol
TGGAGCACGTGGCTCG | -0.15 kcal/mol
CTAAACACGTGGATGG | 0.05 kcal/mol
GGGATCACGTGATTGT | 0.3 kcal/mol
CTTCGCACGTGAGGGG | 0.05 kcal/mol
TTTCTCACGTGTATTT | 0.15 kcal/mol
ATTGTCACGTGTTCAA | 0.08 kcal/mol

Sequence | relative binding free energy
CGTCACACGTGTGTTG | 0.13 kcal/mol
TGCGGCACGTGGCGGC | -0.13 kcal/mol
TGGAACACGTGGTGGG | 0.14 kcal/mol
CAAGTCACGTGGTGGT | 0.07 kcal/mol
CGGTGCACGTGATGAT | 0.17 kcal/mol
GGGGTCACGTGGGAAG | 0.14 kcal/mol
GGTGACACGTGTTTAG | -0.03 kcal/mol
GGTTGCACGTGCTCTG | -0.03 kcal/mol
ATCAGCACGTGTGAGT | -0.05 kcal/mol
AAAGTCACGTGTCGTG | 0.14 kcal/mol
TGGGTCACGTGTCACT | 0.02 kcal/mol
AACGTCACGTGGATGG | 0.2 kcal/mol
TGTTGCACGTGAGTTT | 0.09 kcal/mol
AATGTCACGTGCGCGG | -0.1 kcal/mol
TTTCTCACGTGGTAGG | 0.19 kcal/mol
ATTGTCACGTGTGGAT | 0.23 kcal/mol
TAGTGCACGTGAACGG | 0.28 kcal/mol
ATTTGCACGTGGTAAA | -0.07 kcal/mol
TCGATCACGTGGAGGG | 0.02 kcal/mol
GTATGCACGTGACGGG | 0.06 kcal/mol
TGCATCACGTGAGTCG | 0.4 kcal/mol
GGGTACACGTGATAGG | 0.16 kcal/mol
TTATGCACGTGATTGC | 0.2 kcal/mol

Sequence | relative binding free energy
TGGAGCACGTGCTGGG | -0.21 kcal/mol
GGACACACGTGGGGTT | -0.15 kcal/mol
TCGGCCACGTGTAGGT | 0.02 kcal/mol
GTTGGCACGTGGTGGA | -0.04 kcal/mol
GGTGACACGTGATGTG | 0.12 kcal/mol
TTTATCACGTGATTGA | 0.26 kcal/mol
GCGGCCACGTGGTAGG | -0.11 kcal/mol
GGGGCCACGTGTACAG | 0.13 kcal/mol
AAAGACACGTGTTTGG | 0.04 kcal/mol
CATAACACGTGTAGGT | 0.03 kcal/mol
AGTTGCACGTGGCTGG | 0 kcal/mol
AATAGCACGTGATTTT | 0.15 kcal/mol
TAGGCCACGTGTGGCG | -0.01 kcal/mol
CTATTCACGTGTTGGT | 0.24 kcal/mol
GTGGGCACGTGGCAAG | -0.14 kcal/mol
GTTCTCACGTGGGAGG | 0.12 kcal/mol
ATGCTCACGTGATATG | 0.28 kcal/mol
TTTTTCACGTGGAGCC | 0.5 kcal/mol
AGGGTCACGTGGGCTT | -0.06 kcal/mol
GTGTGCACGTGTAGTC | 0.11 kcal/mol
GGGTGCACGTGAGGGC | 0.21 kcal/mol
GTGTTCACGTGTAAGT | 0.37 kcal/mol
TAGGTCACGTGACGGA | 0.05 kcal/mol

Sequence | relative binding free energy
AAATGCACGTGGGGAT | -0.18 kcal/mol
GTTCACACGTGGGGAG | 0.05 kcal/mol
AAGGTCACGTGTTAGA | 0.25 kcal/mol
TTGTGCACGTGTAGTG | -0.02 kcal/mol
ATCGGCACGTGAATGT | 0.14 kcal/mol
GTTTGCACGTGGGTGC | 0.03 kcal/mol
AGTCGCACGTGGGGTT | -0.29 kcal/mol
TATATCACGTGAAATT | 0.35 kcal/mol
AATGTCACGTGGTCAT | 0.07 kcal/mol
TAATGCACGTGTGAAT | 0.12 kcal/mol
CGTTGCACGTGAGTGA | 0.09 kcal/mol
CGGGTCACGTGTGCTG | 0.12 kcal/mol
GGTTTCACGTGACTAG | 0.32 kcal/mol
TTTGGCACGTGTCCGT | -0.16 kcal/mol
AGAGGCACGTGGTGAG | -0.13 kcal/mol
CGTCGCACGTGGGGGG | -0.2 kcal/mol
TTTTACACGTGTGGGT | 0.23 kcal/mol
CAGGGCACGTGCAGGG | -0.08 kcal/mol
TCTTACACGTGAGTGG | 0.27 kcal/mol
TAAGGCACGTGGTCGT | -0.19 kcal/mol
GGGGGCACGTGAGGGT | 0.19 kcal/mol
CATTACACGTGGGAGG | -0.08 kcal/mol
GAATGCACGTGATATG | 0.04 kcal/mol

Sequence | relative binding free energy
TTGCACACGTGAGTGG | 0.3 kcal/mol
TGTGACACGTGGTATA | -0.1 kcal/mol
TAGTACACGTGAGTTA | 0.26 kcal/mol
AGGTTCACGTGCTTTA | 0.21 kcal/mol
GGGGGCACGTGTGTCT | -0.06 kcal/mol
AAAATCACGTGGTGTC | 0.18 kcal/mol
GTAGGCACGTGGAGTG | -0.14 kcal/mol
GGAGTCACGTGAATTT | 0.29 kcal/mol
TGGGGCACGTGATGAA | -0.04 kcal/mol
TGAACCACGTGTGTTT | 0.05 kcal/mol
ATTCTCACGTGTTAGT | 0.11 kcal/mol
GGCGCCACGTGAGGGG | 0.18 kcal/mol
TTGGTCACGTGATGTA | 0.22 kcal/mol
AGGGGCACGTGAACAG | 0.1 kcal/mol
GGGTACACGTGTTAGG | 0.08 kcal/mol
GTGGGCACGTGCGGCG | -0.18 kcal/mol
ATGGTCACGTGATTCG | 0.03 kcal/mol
TCAGTCACGTGATGCG | 0.16 kcal/mol
TCCGGCACGTGGTGAG | -0.19 kcal/mol
CGTTGCACGTGGTATT | -0.01 kcal/mol
GGTTGCACGTGACGGT | 0.22 kcal/mol
TGCGACACGTGTGTTT | 0.09 kcal/mol
TAGTACACGTGCGTTG | 0.05 kcal/mol

— the BET-seq Pho4 binding data (Le et al. 2018)
